Test results taken from publication PMC4336329 (PLoS ONE, 2015).
About 2,200 (0.71%) of roughly 310,000 compounds showed an effect of 50% or more. The effect is printed as a negative number. The list shows a part of the results.

Each compound was assayed against human ether-à-go-go-related gene (hERG) potassium channel (human, UniProt Q12809) (assay: primary screen, population patch clamp on CHO cells stably expressing hERG).
Sequence of human ether-à-go-go-related gene (hERG) potassium channel (Q12809 whole entry, looked up): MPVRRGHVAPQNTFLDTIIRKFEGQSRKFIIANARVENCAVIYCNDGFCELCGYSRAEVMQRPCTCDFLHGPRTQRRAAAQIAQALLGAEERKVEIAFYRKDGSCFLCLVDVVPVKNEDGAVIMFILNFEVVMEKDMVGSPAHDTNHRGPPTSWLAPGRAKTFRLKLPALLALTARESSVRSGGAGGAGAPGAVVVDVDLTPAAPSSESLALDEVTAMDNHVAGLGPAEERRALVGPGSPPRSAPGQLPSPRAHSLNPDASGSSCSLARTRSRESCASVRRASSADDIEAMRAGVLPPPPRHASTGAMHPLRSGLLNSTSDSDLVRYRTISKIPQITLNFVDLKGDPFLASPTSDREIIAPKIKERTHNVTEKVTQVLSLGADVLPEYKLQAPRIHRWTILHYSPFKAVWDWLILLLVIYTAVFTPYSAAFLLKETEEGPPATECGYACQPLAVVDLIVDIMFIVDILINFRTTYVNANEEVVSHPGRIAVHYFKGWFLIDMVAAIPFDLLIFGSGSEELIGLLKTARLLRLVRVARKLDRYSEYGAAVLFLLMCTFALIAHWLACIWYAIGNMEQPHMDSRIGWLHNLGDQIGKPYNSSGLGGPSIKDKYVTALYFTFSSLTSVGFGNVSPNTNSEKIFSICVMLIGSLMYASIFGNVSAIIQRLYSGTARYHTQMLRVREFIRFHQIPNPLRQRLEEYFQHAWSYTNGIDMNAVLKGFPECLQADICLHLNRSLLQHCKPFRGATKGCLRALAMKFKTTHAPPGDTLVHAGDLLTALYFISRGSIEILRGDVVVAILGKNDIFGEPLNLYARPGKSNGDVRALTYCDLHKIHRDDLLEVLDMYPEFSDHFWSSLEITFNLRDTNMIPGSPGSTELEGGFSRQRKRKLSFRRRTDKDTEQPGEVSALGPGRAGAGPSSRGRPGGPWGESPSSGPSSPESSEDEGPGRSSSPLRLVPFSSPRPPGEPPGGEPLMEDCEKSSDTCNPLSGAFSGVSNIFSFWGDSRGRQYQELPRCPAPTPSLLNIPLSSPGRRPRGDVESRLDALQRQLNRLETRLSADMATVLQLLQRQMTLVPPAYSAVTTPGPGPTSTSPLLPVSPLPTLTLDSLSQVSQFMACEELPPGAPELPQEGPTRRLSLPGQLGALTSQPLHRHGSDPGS

SMILES	hERG current change (%, negative = inhibition) at 1uM [%]
Cc1sc2ncnc(N3CCCC(C)C3)c2c1C.Cl (centres unmarked)	15
Cc1ccc(C)c(C(=O)N2CCN(c3ncccn3)CC2)c1	4.4
COc1ccccc1C(=O)N1CCN(c2cccc(Cl)c2)CC1	12.4
COc1ccc(Cl)cc1C(=O)O/N=C(\N)c1ccccn1	11.4
CCCC(C)c1nnc(NC(=O)C2CC(=O)N(c3ccc(OCC)cc3)C2)s1 (centres unmarked)	-13.2
O=C(C[n+]1cccc(CNC(=O)c2ccc(OC(F)F)cc2)c1)c1ccccc1.[Cl-]	2.3
CSc1ncccc1C(=O)NCCc1ccccc1	3.42
NC(=O)C1CCN(C(=O)OCc2ccccc2)CC1	15.6
CCOc1ccc(-n2c(=S)sc3c(=O)[nH]c(SCC(=O)C(C)(C)C)nc32)cc1	18.1
O=C(Nc1ccc(S(=O)(=O)NC2=NCCCCC2)cc1)c1ccc([N+](=O)[O-])s1	-12
Cc1ccc(NC(=O)CSc2nnc(C3CC3)n2N)cc1S(=O)(=O)N1CCOCC1	20.1
CC(=O)NC1C(Oc2cccc(C)c2)OC2COC(c3ccco3)OC2C1O (centres unmarked)	0.894
COC(=O)CSc1nnc(NC(=O)CCc2ccccc2)s1	18
Cc1cc(=O)c(C(=O)O)nn1-c1ccccc1Cl	19.2
C=CCN(C(=O)Cn1ncc2c1-c1cc(C)ccc1OC2)c1ccccc1	-2.97
Cn1c(=O)oc2cc(S(=O)(=O)NCc3ccccn3)ccc21	13
CC(=O)Nc1ccc(NC(=O)C(=O)N/N=C/c2cccnc2)cc1	10.5
CCCn1nc(C(=O)NNC(=O)CSCC(=O)Nc2cc(C)on2)c2ccccc2c1=O	12.3
CCOC(=O)C1=C(N)OC(C)=C(C(=O)OCCOC)C12C(=O)Nc1ccccc12 (centres unmarked)	4.11
O=C(Cn1cccc1C(=O)c1ccccc1)NCCCN1CCOCC1	14.3
COc1ccc2ncc(S(=O)(=O)c3ccccc3)c(N3CCN(c4ccccc4)CC3)c2c1	11.9
Cc1ccc(-n2ccc(-c3nn(-c4ccccc4)ccc3=O)n2)cc1	3.98

SMILES	hERG current change (%, negative = inhibition) at 1uM [%]
CCN1CCN(C(=O)c2ccc(COc3cccc(Cl)c3)o2)CC1	12.9
COc1ccc(/C=N\NC(=O)c2ccccc2F)cc1COc1ccc(F)cc1F	6.72
O=C(NCc1ccc(Cl)cc1)C(=O)NCC1OCCN1C(=O)c1cccs1 (centres unmarked)	3.06
COc1ccc(C(=O)Nc2ccccc2C(=O)N/N=C/c2ccccn2)cc1OC	15.7
Cc1ccc(S(=O)(=O)N(CC(O)CN2CCOCC2)c2cc(Cl)ccc2Cl)cc1.Cl (centres unmarked)	-2.22
Cc1ccc(C)n1-n1cnc2sc3c(c2c1=O)CCCCC3	-9.02
COP(=O)(NC(=O)C(Cl)(Cl)Cl)OC	9.73
COc1cc(Cl)cc(/C=N/NC(N)=O)c1O	7.76
O=C(NC1CCCC1)C(c1ccc(F)cc1)N(Cc1ccccc1)C(=O)c1csnn1 (centres unmarked)	5.61
CC(C)CNC(=S)Nc1ccc(Oc2ccccc2)cc1	17
CN1C(=O)c2c(sc3c2CC(C)(C)SC3)N2CCN=C12.Cl	-4.34
O=C(Cn1cnc2c(nnn2Cc2ccccc2)c1=O)NCc1ccccc1Cl	13.4
COc1ccccc1-n1cc(C(=O)NCC(=O)N2CCN(Cc3ccccc3)CC2)c2ccccc2c1=O	2.9
COc1ccccc1CNC(=O)c1cc2sccc2n1C	4.15
CC(=O)c1cccc(S(=O)(=O)N2CCC(C(=O)OC3CCOC3=O)CC2)c1 (centres unmarked)	-2.02
CC1c2[nH]c3ccccc3c2CCN1S(C)(=O)=O (centres unmarked)	1.6
CC(=O)OCC[n+]1c(C)n(-c2ccccc2)c2ccc(Cl)cc21.[I-]	5.45
CCn1cc(C(=O)NCc2ccccc2OC)c(=O)c2cc(S(=O)(=O)N(C)C)ccc21	10.2
CCCn1c(NC(=O)c2ccc([N+](=O)[O-])o2)nc2ccccc21	8.32
Cc1ccc(OCC(=O)Nc2ccccc2Sc2ccccc2)c([N+](=O)[O-])n1	13.9
O=C(O)c1ccc(NC(=O)c2ccccc2NC(=O)c2ccccc2Br)cc1	15.7
C=CCOn1c(=O)c(-c2cc3ccccc3o2)[n+]([O-])c2ccccc21	11.7
